T1: UNK ZnF1-6 (called full-length) (human, UniProt Q9C0B0 30-357)
T1 sequence: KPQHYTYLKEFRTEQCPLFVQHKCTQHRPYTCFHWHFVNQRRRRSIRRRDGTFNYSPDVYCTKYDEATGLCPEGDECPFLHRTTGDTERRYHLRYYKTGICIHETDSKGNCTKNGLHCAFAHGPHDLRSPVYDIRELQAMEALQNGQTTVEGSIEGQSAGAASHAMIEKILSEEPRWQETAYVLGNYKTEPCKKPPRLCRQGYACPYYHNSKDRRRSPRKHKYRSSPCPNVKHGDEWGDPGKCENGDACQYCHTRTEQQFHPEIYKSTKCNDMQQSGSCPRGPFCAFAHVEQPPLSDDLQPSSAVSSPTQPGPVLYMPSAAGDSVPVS

B1: chr6:105098323:105098438:-|3pUTR|ENSG00000112276|msi1|FALSE|unique (ssRNA)
RNA: GGGAGUUCUACAGUCCGACGAUCUAUCAGUGUCUCAAUGUGAAGAUUGUAACCUCAAGAUUAGGAAUCUUAAAAGAGCCACUUAGCCUGAAUGGGAAACGUGAGACUAUUUUUAAACACACACCUCUAAGGAAGAAGCCUCCCCAACAGAGGAUUGAGCAUCA
B2: chr14:23351947:23352451:-|CDS|ENSG00000092096|control|control|control (ssRNA)
RNA: GGGAGUUCUACAGUCCGACGAUCUGCCUCUGGCUGGGAGCAGCCUCCCAAUGCCAGCGGCGUCAGCGUCGCCAGCGCUGCCCUAGCAGCCAGCGCCGCCAGCCGUGUCGCCACCAGUACCGACCCCUCGUGCAGCGGCUUCGCCAACAGAGGAUUGAGCAUCA
B3: chr19:17816511:17817055:-|three_prime_utr|ENSG00000248099|control|control|control (ssRNA)
RNA: GGGAGUUCUACAGUCCGACGAUCCUACCCCAGACCAAUGCCACCUGCAGCCUGUGGAGUCAACUGCAGAAUAAAUCACACCCUAGCCCUGGCUUGGAGGAUCCCCGCUUUCACAGAUGCUGGACACUGACAGCCAAAUGUCCUCAACAGAGGAUUGAGCAUCA
B4: chr19:53353201:53353302:+|CDS|ENSG00000213799|msi1|FALSE|unique (ssRNA)
RNA: GGGAGUUCUACAGUCCGACGAUCCACAAUUCAGCCCUUGAAAUUCAUAAGGCAAUUCAUACUGGAGAAAAACCUUACAAGUGUAGUGAAUGUGGCAAGGUUUUUAAUAGAAAAGCAAACCUUUCACGUCAUCAUAGACUUCAUCAACAGAGGAUUGAGCAUCA
B5: ENSG00000182944:stop:overlap|stop_codon|ENSG00000182944|stop_codon|NA|stop_codon (ssRNA)
RNA: GGGAGUUCUACAGUCCGACGAUCGAGGACCUGGAAAAAUGGAUAAAGGCGAGCACCGUCAGGAGCGCAGAGAUCGGCCCUACUAGAUGCAGAGACCCCGCAGAGCUGCAUUGACUACCAGAUUUAUUUUUUAAACCAGAAAAUCAACAGAGGAUUGAGCAUCA
B6: chr8:23842320:23842421:-|3pUTR|ENSG00000159167|msi1|total|mutant (ssRNA)
RNA: GGGAGUUCUACAGUCCGACGAUCUAUGUAUCUACAAUACAUAUAUCUACACAUACAGAAAGAAGCAGUUCUCACAAUGUUGCCCGUUUUUUGCUUCUCUUUCCCCCACCCUACUCCCUCCAAUUCCCCCUUAAACUUCCAAAGCAACAGAGGAUUGAGCAUCA
B7: chr1:205084032:205084133:-|CDS|ENSG00000174529|msi1|FALSE|unique (ssRNA)
RNA: GGGAGUUCUACAGUCCGACGAUCGGAGACCGUCUGUGAGGUGGGCCCUGAUGGAGUGAGAAGGAAAUGUCAGACUCGGCGCUUAGAAUGUCUGACCAACUGGAUCUGUGGGAUGCUCCAUUUCACCAUUCUCAUUGGCAAGGACAACAGAGGAUUGAGCAUCA
B8: chrX:64224827:64225650:-|CDS|ENSG00000198881|control|control|control (ssRNA)
RNA: GGGAGUUCUACAGUCCGACGAUCCCUAGACCAUGGUGCAGAGGCCAACGUCAAAGCUAAACUACCAGUCUGGGCAUCAAACAUAGCUUCAUGUUCUGGCCCCCUCUAUUUGGCCGCAGUCUACGGGCACCUGGACUGUUUCCGCAACAGAGGAUUGAGCAUCA
B9: ENSG00000198589:be:win_7451|CDS|ENSG00000198589|bound_else_gene|NA|bound_elsewhere_windowed (ssRNA)
RNA: GGGAGUUCUACAGUCCGACGAUCUGAGUCCAUUGAUGUUCACAGACAAAGCCCAGCAGGAUGUUAUCAUGGUCCUCAAGUUUCCCUCCAACUCCCCUGUUACUCACGUGGCAGCCAACACCCAGCCUGGUUUGGCAACUCCCGCAACAGAGGAUUGAGCAUCA
B10: chr17:44959692:44960187:-|three_prime_utr|ENSG00000131094|control|control|control (ssRNA)
RNA: GGGAGUUCUACAGUCCGACGAUCCCCGGCCCUCCCCGGCUAUGACGCCCCCGGCCCGUGCUCAACACCGCCUGGGCCACAGCUAGGCCCUCCCACCGGCUCGCUGCAGAGCCGGGCCCAGCGCGCCCUGUCCCCGUGCCAGGGCAACAGAGGAUUGAGCAUCA
B11: chr12:29451344:29451569:-|CDS|ENSG00000187950|control|control|control (ssRNA)
RNA: GGGAGUUCUACAGUCCGACGAUCGAAGCAGAGCUAGAAAAGCCUAGAGGCUUUUUUCCCACACCACGGUAUCUACUGGAUUAUAGAGGAAGACUGGAAUGUUCUUGGGUGCUCAGAGUUUCAGCAAGCAGUAUGGCAAAAUUUCAACAGAGGAUUGAGCAUCA
B12: chr17:58089184:58089285:+|CDS_3pUTR|ENSG00000264364|msi1_unk|total|mutant (ssRNA)
RNA: GGGAGUUCUACAGUCCGACGAUCCAAAGCACUUCAUCUAUUUUUACUUGGGUCAAGUUGCAAUCCUCCUCUUCAAGUCAGGCCCGGUGGCCAUGGUGAAGGUGUCAGUGGCGGCGGCAGCGAUGGCAAGCAGGCGGCGUUGCUCAACAGAGGAUUGAGCAUCA
B13: chr22:38736040:38736148:-|3pUTR|ENSG00000100242|msi1|FALSE|unique (ssRNA)
RNA: GGGAGUUCUACAGUCCGACGAUCCCCCAUGCAGAUGAAAAGGACGGGCAGGGUCUCCUGAGCAGCAGGUGGCUCGAGGCGGUUAGCAGGCUCCAGCAGCUCCCUUCUUCCUUCCCUCUGUGCCCGUGGCGUCUGCUUCCCAUCCAACAGAGGAUUGAGCAUCA
B14: chr11:6768009:6768957:-|CDS|ENSG00000188124|control|control|control (ssRNA)
RNA: GGGAGUUCUACAGUCCGACGAUCCGUGACAGGUGUGACUUUCCUCUUGCUCCCCAUUUCUGCCAUUGUGGCCUCCUACACACUAGUCCUAUUCACUGUGCUUCGUAUGCCAUCAAAUGAGGGGAGGAAGAAAGCCCUUGUCACCAACAGAGGAUUGAGCAUCA

Consider 14 molecules from paper PMC12136788.

This is one part of the list.

The test deals with T1, UNK ZnF1-6 (called full-length). Description: nsRBNS (natural sequence RNA bind-n-seq); RBNS binding buffer (assumed for nsRBNS): 25 mM Tris pH 7.5, 150 mM KCl, 3 mM MgCl2, 0.01% Triton X-100, 500 ug/ml BSA, 20 U/ml SUPERase-In, 4 C; UNK is unkempt and MSI1 is Musashi-1; names of the RNAs are library labels; protein concentration not given here; high values mean tight binding.
On to B1, for which the binding signal was determined as 0.617 enrichment R.

In the case of B2, the binding signal was determined as 0.508 enrichment R.

Molecule B3 returned a binding signal of 0.81 enrichment R.

B4 came in with a binding signal of 0.536 enrichment R.

The molecule B5 had a binding signal of 0.593 enrichment R.

In turn, B6 registered a binding signal of 0.639 enrichment R.

Turning to B7, the binding signal was found to be 0.833 enrichment R.

On to B8, for which the binding signal stood at 0.674 enrichment R.

In the case of B9, the binding signal worked out at 0.743 enrichment R.

Molecule B10 displayed a binding signal of 0.865 enrichment R.

Molecule B11 yielded a binding signal of 0.646 enrichment R.

For B12, the binding signal turned out to be 0.98 enrichment R.

For the molecule B13, the binding signal amounted to 0.962 enrichment R.

For B14, the binding signal is 1.12 enrichment R.
